Experimental data: the supplement of paper PMC7826260
The list shows a part of the results. One pool of 16,384 single-stranded DNAs met each Rep nickase domain in vitro at 3 µM enzyme and 37 °C for 1 h; the strands have 90 letters, of which the middle is given. Numbers give uncut DNA relative to the enzyme-free pool, as log2; the lower, the more was cut; hits are not called. Counts are relative to all reads, so uncut sequences can rise above 0 when many others are cut.

test system: T1, Rep nickase domain of tomato golden mosaic virus; experiment: uncleaved DNA left, log2 of reads against the no-enzyme library (log2 ratio); higher = less cleavage (more negative = more Rep cleavage of the k-mer); sequences stand for … in CTCGTCCG…ACCGGAGA
T1 sequence (protein, residues 1-124, tag omitted): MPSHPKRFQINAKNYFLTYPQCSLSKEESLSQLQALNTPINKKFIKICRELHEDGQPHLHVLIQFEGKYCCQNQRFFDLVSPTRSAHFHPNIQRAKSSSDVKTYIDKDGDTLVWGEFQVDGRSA
Procedure: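 A pool of 90-nt single-stranded DNAs with seven random bases just before the constant AC of the nick site (name = the seven bases) was cut by 3 µM recombinant His6-SUMO-tagged Rep nickase domain (300 nM DNA, 50 mM HEPES pH 8.0, 50 mM NaCl, 1 mM MnCl2, 1 h, 37 °C, three replicates). Uncut DNA was amplified and sequenced.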

Sequence	uncleaved DNA left (log2)
ACCATTG	-0.0205
AGTAGGA	0.0217
CCCTATG	0.0748
CGATGCC	0.0197
AAGTGAT	0.18
CTTTTGA	-0.0562
GTTTGCG	0.00028
GATGGGG	0.0405
CAGATAG	-0.104
TCGCGAA	-0.0613
GTCGGTT	0.155
AGACCGG	0.102
TGGTAGG	0.0152
GCGGGAG	0.267
TACCCCT	-0.321
CAGTTGC	-0.131
ATCATCG	0.0184
GGTCGTA	0.122
TTCATAT	0.0726
CATCTTC	-0.0215

Sequence	uncleaved DNA left (log2)
GGACCTA	-0.00501
GAAGTTC	-0.0751
GAAAGAG	0.0709
ACGATTG	0.0254
AGTCCAT	-0.0601
CTTTAAC	-0.161
TGGGGTT	-0.026
TGCTGAC	-0.0435
TCGCGGA	0.195
GTGAACA	0.0918
TAGGGGC	0.161
ATATCGG	0.0588
CGGTGAG	-0.112
CGTATTA	-0.00152
CGGATGT	-0.115
CCCGAAA	-0.13
GTATGCG	0.000407
AAGAACG	0.0476
ATAGGAG	0.172
AAGTAGT	0.0613
